Measured values reported in the BET-seq Pho4 binding data (Le et al. 2018).
Some of the results follow. The energies were worked out here from pooled read counts, against the library average; single values are noisy.

Each sequence was assayed against T1, Pho4 (S. cerevisiae) (UniProt P07270) (assay: relative binding free energy (BET-seq); higher = weaker binding). Conditions: reference: library average.
T1 sequence: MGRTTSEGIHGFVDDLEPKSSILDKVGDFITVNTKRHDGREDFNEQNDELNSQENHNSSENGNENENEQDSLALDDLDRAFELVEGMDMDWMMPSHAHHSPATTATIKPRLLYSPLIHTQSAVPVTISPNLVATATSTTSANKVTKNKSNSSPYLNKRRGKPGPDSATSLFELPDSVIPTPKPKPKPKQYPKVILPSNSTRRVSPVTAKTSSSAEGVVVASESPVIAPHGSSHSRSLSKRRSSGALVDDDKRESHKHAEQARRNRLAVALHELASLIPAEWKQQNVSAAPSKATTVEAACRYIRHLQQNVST

Sequence | relative binding free energy
GTGGGCACGTGAGATT | 0.1 kcal/mol
TTTCTCACGTGAATGG | 0.4 kcal/mol
TTCTTCACGTGGTTCT | 0.33 kcal/mol
GGGGTCACGTGTAAGC | 0.26 kcal/mol
ATTCTCACGTGGGGGT | 0.06 kcal/mol
TTTGACACGTGTTGCA | 0.05 kcal/mol
ATTCTCACGTGATGTG | 0.15 kcal/mol
TGAATCACGTGTAATA | 0.19 kcal/mol
AGTTCCACGTGTTAGG | 0.23 kcal/mol
AGTTGCACGTGAGGTC | 0.17 kcal/mol
ATTTGCACGTGGGGTG | -0.19 kcal/mol
TATTGCACGTGTTACG | -0.05 kcal/mol
GTATGCACGTGGCCGG | -0.24 kcal/mol
AAGATCACGTGAAGTG | 0.33 kcal/mol
GCGTTCACGTGATGGA | 0.48 kcal/mol
ATGGACACGTGGGGCT | -0.06 kcal/mol
GAAGGCACGTGTTAAT | -0.06 kcal/mol
GTTTTCACGTGATGAG | 0.42 kcal/mol
TTATACACGTGGGCTT | -0.12 kcal/mol
GTATGCACGTGGTGTT | 0.02 kcal/mol
TTTTTCACGTGGCAAT | 0.24 kcal/mol
ACTTGCACGTGTGGCT | 0.22 kcal/mol
TGGTACACGTGAGCTA | 0.32 kcal/mol
ATATTCACGTGTACGT | 0.06 kcal/mol
GGTAACACGTGTTGTC | 0.25 kcal/mol

Sequence | relative binding free energy
TTTTTCACGTGGGGCT | 0.27 kcal/mol
TAAGGCACGTGAGGAT | 0.2 kcal/mol
TATAGCACGTGGCAGT | -0.22 kcal/mol
GGGTACACGTGGGGAC | 0 kcal/mol
CGTTACACGTGTGGTG | 0.09 kcal/mol
GTGGGCACGTGCTTTA | -0.06 kcal/mol
GAGGTCACGTGGTGCG | 0.17 kcal/mol
TCGTACACGTGGGTGG | -0.11 kcal/mol
TTATTCACGTGAATGA | 0.4 kcal/mol
CGGTTCACGTGATAGA | 0.3 kcal/mol
ATGTACACGTGATTTT | 0.3 kcal/mol
GGAGGCACGTGGCCTG | -0.3 kcal/mol
AAAGTCACGTGGCTGT | -0.01 kcal/mol
TGCTGCACGTGAGGCT | 0.27 kcal/mol
TATTTCACGTGCATTA | 0.17 kcal/mol
ATCGCCACGTGGTGGT | -0.18 kcal/mol
TGGTGCACGTGTTGGT | -0.01 kcal/mol
CGGTTCACGTGGATGC | 0.24 kcal/mol
ATAATCACGTGGTGGC | 0.01 kcal/mol
TGGCGCACGTGGTCTG | -0.24 kcal/mol
AGGATCACGTGGTGAT | 0.03 kcal/mol
ATTGTCACGTGTGGGA | 0.12 kcal/mol
TGTTTCACGTGCATGA | 0.28 kcal/mol
GGGTGCACGTGTAGGG | -0.05 kcal/mol
GTGGACACGTGCTGTA | -0.06 kcal/mol

Sequence | relative binding free energy
GATTTCACGTGTTGGC | 0.37 kcal/mol
TGGGCCACGTGTTTTT | 0.05 kcal/mol
ATTGGCACGTGAAATG | 0.1 kcal/mol
TCGGTCACGTGGTAGT | -0.02 kcal/mol
ATAATCACGTGTGTAG | 0.15 kcal/mol
TTATACACGTGGTACT | -0.07 kcal/mol
GAGTTCACGTGTGTCT | 0.34 kcal/mol
GCGGTCACGTGTTATT | 0.1 kcal/mol
ATGGTCACGTGCAGGA | 0.12 kcal/mol
TTCAACACGTGTTTTT | 0 kcal/mol
GCTGTCACGTGGATTG | 0.04 kcal/mol
TGTAGCACGTGAGTTA | 0.27 kcal/mol
TAGGACACGTGGGAAG | -0.02 kcal/mol
AATTTCACGTGTTTTC | 0.13 kcal/mol
CGGGGCACGTGGCAGT | -0.16 kcal/mol
GAGGTCACGTGGCGGT | 0.15 kcal/mol
CGGAACACGTGCGGTG | 0.1 kcal/mol
AATATCACGTGAGGTG | 0.3 kcal/mol
ACAGGCACGTGTAGTT | -0.07 kcal/mol
TGGGTCACGTGGTAGT | 0.07 kcal/mol
CAAGTCACGTGGGAGG | -0.02 kcal/mol
TGTTGCACGTGTCAGA | 0.16 kcal/mol
TTATACACGTGTCTTA | 0.03 kcal/mol
TGATGCACGTGTAACG | 0.06 kcal/mol
ATTATCACGTGAGGGA | 0.29 kcal/mol

Sequence | relative binding free energy
TGTAGCACGTGATGTT | 0.02 kcal/mol
TTCGACACGTGTTGTG | 0.09 kcal/mol
ATGATCACGTGGTGAA | 0.19 kcal/mol
GTTTGCACGTGGAGGG | 0.06 kcal/mol
GCGGCCACGTGGGGTC | -0.08 kcal/mol
CGGGACACGTGTGCGG | -0.01 kcal/mol
TAGGTCACGTGGAAGA | 0.16 kcal/mol
GGGAGCACGTGTTATT | -0.1 kcal/mol
GTACACACGTGGGGTT | -0.06 kcal/mol
GTGGGCACGTGCTTAA | -0.14 kcal/mol
AGAGTCACGTGTTTGA | 0.17 kcal/mol
TTGCTCACGTGTAGGT | 0.07 kcal/mol
ATGTACACGTGCGTTG | -0.02 kcal/mol
GGGGACACGTGATGGT | 0.27 kcal/mol
TGGTGCACGTGCAGCT | -0.11 kcal/mol
ATGCTCACGTGTGGGG | 0.22 kcal/mol
GAGTTCACGTGCTTGT | 0.29 kcal/mol
CGTGTCACGTGAGGAA | 0.25 kcal/mol
GGTTTCACGTGGGCTA | 0.08 kcal/mol
GCGGTCACGTGGTGAG | 0.07 kcal/mol
GTTATCACGTGTGTTT | 0.34 kcal/mol
AGTGTCACGTGCAAGT | 0.08 kcal/mol
TTTGTCACGTGGAGGC | 0.08 kcal/mol
ATGGTCACGTGAATTG | 0.42 kcal/mol
TGTCGCACGTGCGTAT | -0.09 kcal/mol

Sequence | relative binding free energy
ACTCTCACGTGTGGGG | 0.17 kcal/mol
TGGGTCACGTGATATT | 0.26 kcal/mol
TATGTCACGTGTTAGG | 0.16 kcal/mol
TTGGGCACGTGCAATA | -0.13 kcal/mol
TACGTCACGTGGAGGT | 0.07 kcal/mol
GGGTTCACGTGTGGGC | 0.37 kcal/mol
CGGGGCACGTGGTAAT | -0.2 kcal/mol
TTTTGCACGTGCTGAG | -0.02 kcal/mol
GGTGACACGTGTGGGA | 0.16 kcal/mol
GGTCGCACGTGTGGAT | 0.07 kcal/mol
ATTTGCACGTGGAGCT | 0.04 kcal/mol
AGATTCACGTGCGTGT | 0.27 kcal/mol
TGCAGCACGTGTAGGG | 0.01 kcal/mol
GACGACACGTGGTGTT | 0 kcal/mol
TGAATCACGTGTGGTC | 0.21 kcal/mol
TCTTGCACGTGTGGAT | 0.04 kcal/mol
AATTTCACGTGAGCTT | 0.29 kcal/mol
ATATACACGTGGTATA | -0.05 kcal/mol
TGGATCACGTGGTGAA | 0.27 kcal/mol
TACCTCACGTGGGTGG | 0.04 kcal/mol
ATAGTCACGTGTAAGG | 0.17 kcal/mol
TATGACACGTGGGGCA | -0.25 kcal/mol
TTGAACACGTGATCGG | 0.12 kcal/mol
ACGTACACGTGTGAGT | 0.12 kcal/mol
GGTCGCACGTGGGGTT | -0.05 kcal/mol

Sequence | relative binding free energy
GGAGTCACGTGAAATT | 0.45 kcal/mol
GACGGCACGTGATGGT | 0.16 kcal/mol
CTACTCACGTGGTGGG | 0.11 kcal/mol
AGGGGCACGTGTTAGT | -0.12 kcal/mol
AATGACACGTGTTTTA | 0.12 kcal/mol
TAGGACACGTGGGCGG | -0.01 kcal/mol
TGGGGCACGTGCTCTG | -0.21 kcal/mol
GTTGTCACGTGGATAT | 0.14 kcal/mol
AAAGGCACGTGGTGAG | -0.19 kcal/mol
ATGTTCACGTGGAAGA | 0.38 kcal/mol
TATTACACGTGTTTGG | 0.15 kcal/mol
ATTCTCACGTGTGTTT | 0.34 kcal/mol
TATTCCACGTGGGTTT | -0.09 kcal/mol
GTGAGCACGTGAATGA | 0.41 kcal/mol
CTTGGCACGTGTCATG | 0.01 kcal/mol
TGGTACACGTGTAGTG | 0.12 kcal/mol
CCTATCACGTGGTTGG | 0.21 kcal/mol
ATTAGCACGTGCTAGT | -0.2 kcal/mol
TTGGACACGTGGTATT | -0.03 kcal/mol
TGTGACACGTGGATGG | 0.12 kcal/mol
TGTGGCACGTGTTATA | -0.12 kcal/mol
